For the experiment, the target named is recombinant human β-Klotho (UniProt Q86Z14 53-996, biotinylated in the AlphaScreen assays (site not stated)). Briefly: binding EC50.
Chain of UniProt Q86Z14 (Q86Z14 53-996): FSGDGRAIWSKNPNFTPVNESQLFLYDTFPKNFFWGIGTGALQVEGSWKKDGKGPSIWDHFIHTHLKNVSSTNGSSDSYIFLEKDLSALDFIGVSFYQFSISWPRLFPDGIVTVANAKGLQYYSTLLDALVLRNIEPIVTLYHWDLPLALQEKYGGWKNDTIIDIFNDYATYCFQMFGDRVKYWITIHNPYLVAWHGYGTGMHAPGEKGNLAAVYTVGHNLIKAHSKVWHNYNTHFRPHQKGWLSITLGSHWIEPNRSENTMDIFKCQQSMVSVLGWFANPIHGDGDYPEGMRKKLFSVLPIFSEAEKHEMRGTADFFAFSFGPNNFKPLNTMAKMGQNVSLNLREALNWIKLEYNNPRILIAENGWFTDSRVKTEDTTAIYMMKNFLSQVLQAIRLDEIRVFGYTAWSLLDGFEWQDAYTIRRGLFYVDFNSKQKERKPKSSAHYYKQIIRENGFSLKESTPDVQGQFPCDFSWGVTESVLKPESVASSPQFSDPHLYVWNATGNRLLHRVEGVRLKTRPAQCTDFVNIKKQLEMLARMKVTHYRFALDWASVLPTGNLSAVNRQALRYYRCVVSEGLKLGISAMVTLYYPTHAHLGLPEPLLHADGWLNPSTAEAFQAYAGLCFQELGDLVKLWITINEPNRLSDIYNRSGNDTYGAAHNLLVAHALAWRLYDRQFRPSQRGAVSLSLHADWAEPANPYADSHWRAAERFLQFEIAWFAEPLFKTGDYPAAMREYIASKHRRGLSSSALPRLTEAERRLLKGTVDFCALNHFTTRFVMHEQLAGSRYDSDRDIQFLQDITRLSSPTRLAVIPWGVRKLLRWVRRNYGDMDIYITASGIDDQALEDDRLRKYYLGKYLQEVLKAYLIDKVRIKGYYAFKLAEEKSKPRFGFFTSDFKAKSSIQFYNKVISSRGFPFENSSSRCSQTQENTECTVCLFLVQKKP

B1: β-Klotho walked dimer bKWD38 (designed binder)
chain: CAAGEFQCSSGRCLPRPWVCDGDNDCGDDSDETNCRASAHTCHSFNQFECRNGQCIPLHLVCDGVPDCGDNSDETDCGDSHILPFSTPGPST
By EC50 is commonly meant the concentration that produces a half-maximal response. Turning to B1, the EC50 amounted to 7 nM.

B2: β-Klotho walked dimer bKWD28 (designed binder)
chain: CGANEFQCRSTGICVPVEWVCDGDNDCGDGSDEPPVCGDSHILPFSTPGPSTCQPDEFTCSSGRCIPQPWLCDGLNDCGDGSDEPPAHCSAPASEPPGSL
Consider B2, for which the EC50 worked out at 3.1 nM.
